Measured values taken from PubChem BioAssay AID1030 (National Center for Advancing Translational Sciences (NCATS), 2008).
Out of some 220,000 compounds screened, about 16,000 (7.3%) were called active. The shares of active, inactive and inconclusive entries below differ from those in the screen. The call rests on the fitted dose curve; in most records, active means well fitted inhibition curve with a large enough effect (not every such curve was filed as active); inconclusive means small, poorly fitted or top-dose-only effect, or another doubt; inactive means no such curve, though single readings can be large or run the other way. No potency is given beside an inconclusive call; the fits are too rough.
Potency means the concentration at half of the fitted maximal effect; tags describe the fitted curve by direction and shape.

Each molecule was assayed against Aldehyde dehydrogenase 1A1 (Homo sapiens) (UniProt P00352) (assay: qHTS Assay for Inhibitors of Aldehyde Dehydrogenase 1 (ALDH1A1)). Details: Purified ALDH1A1, NADH fluorescence, propionaldehyde substrate; series mostly up to 75.3 µM.
UniProt P00352, sequence (P00352 whole entry, looked up): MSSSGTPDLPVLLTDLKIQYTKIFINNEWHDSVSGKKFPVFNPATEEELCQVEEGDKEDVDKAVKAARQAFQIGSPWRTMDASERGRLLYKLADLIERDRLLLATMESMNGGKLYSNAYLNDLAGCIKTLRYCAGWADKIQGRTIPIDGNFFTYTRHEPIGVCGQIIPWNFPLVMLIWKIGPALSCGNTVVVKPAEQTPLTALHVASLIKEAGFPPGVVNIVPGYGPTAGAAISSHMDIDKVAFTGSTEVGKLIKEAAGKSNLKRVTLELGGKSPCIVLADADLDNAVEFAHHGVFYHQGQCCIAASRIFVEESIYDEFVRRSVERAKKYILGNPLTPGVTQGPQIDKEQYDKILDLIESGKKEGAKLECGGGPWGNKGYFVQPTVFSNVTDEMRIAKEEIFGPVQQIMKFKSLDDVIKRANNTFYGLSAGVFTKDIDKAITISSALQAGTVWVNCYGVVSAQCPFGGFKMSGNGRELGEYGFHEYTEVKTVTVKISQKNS
For `CC1Oc2ccccc2N(CC(=O)N(Cc2ccccc2)Cc2ccccn2)C1=O` (stereo not given), the Potency was “inactive”. For `CCOC(=O)C1C(c2ccccc2)C(C(=O)OCC)S(=O)(=O)C(CCN(CC)CC)S1(=O)=O` (stereo not given), the Potency was “inactive”. With `Cc1ccccc1-c1cc2nc(-c3ccc([N+](=O)[O-])cc3)cc(=O)n2[nH]1` the Potency was “inactive”. `Cc1c(=O)n(OCc2cccc(F)c2)c2ccccc2[n+]1[O-]` was tested, and the Potency was inconclusive [inhibitor, single point]. For `NC(N)=Nc1nc(-c2ccccc2)c2ccccc2n1`, the Potency was inconclusive [inhibitor, single point]. In the case of `CC(C)(C)NC(=O)c1ccc2c(c1)N(CC(=O)N1CCN(c3ccccc3F)CC1)C(=O)C(C)(C)O2`, the Potency is reported as active: 14.1 µM. In the case of `COc1cccc(-c2ncc3ccccn23)c1`, the Potency is reported as inconclusive [inhibitor, single point]. With `Cc1ccccc1OCc1nc(-c2ccc(NC(=O)c3cccs3)cc2)no1` the Potency was inconclusive [inhibitor, single point]. In the case of `COc1ccc(/C(C)=N/NS(=O)(=O)c2cc(C)ccc2C)c(OC)c1`, the Potency is reported as inconclusive [inhibitor, single point]. For `Fc1ccc(OCc2nc3ccccc3s2)cc1`, the Potency was “inactive”. For `CN(c1cccc(NS(=O)(=O)c2cccc([N+](=O)[O-])c2)c1)S(C)(=O)=O`, the Potency was inconclusive [inhibitor, single point]. In the case of `CC(NC(=O)C(=O)N/N=C/c1ccccc1)c1ccccc1` (stereo not given), the Potency is reported as “inactive”. In the case of `O=C1C2C3C=CC(C3)C2C(=O)N1c1cccc(N2C(=O)C3C4C=CC(C4)C3C2=O)n1` (stereo not given), the Potency is reported as “inactive”. In the case of `O=S(=O)(NC(=S)NC1CCCCC1)c1ccc(Cl)cc1`, the Potency is reported as active: 25.1 µM. For `CCn1cc(C(=O)NC(C)C2CC3CCC2C3)cn1` (stereo not given), the Potency was “inactive”. In the case of `CN1CCc2nc(NC(=O)c3cccc(OC(F)F)c3)sc2C1`, the Potency is reported as “inactive”. `C=CCNC(=S)Nc1sc2c(c1C(=O)OCC)CC(C)(CC)OC2` (stereo not given) was tested, and the Potency was inconclusive [inhibitor, single point]. `CC(c1ccco1)N(C(=O)c1ccccc1F)c1ccccn1` (stereo not given) was tested, and the Potency was inconclusive [inhibitor, single point]. `COc1ccc(Nc2nc3ccccc3s2)cc1` was tested, and the Potency was “inactive”. With `COc1ccc(NC(=O)CSc2c(C)nn(-c3nnc(C)c(=O)[nH]3)c2C)cc1` the Potency was inconclusive [inhibitor, single point]. `COc1ccc(NC(=S)NCCCCCC(=O)C[N+](=O)[O-])cc1` was tested, and the Potency was active: 2.51 µM. In the case of `O=C(NC(C(=O)N/N=C/c1c2ccccc2cc2ccccc12)c1n[nH]c(=O)c2ccccc12)c1ccccc1` (stereo not given), the Potency is reported as inconclusive [inhibitor, single point]. For `CC(C)CC(=O)CC1(O)C(=O)Nc2ccccc21` (stereo not given), the Potency was “inactive”. For `CCCSC1=N/C(=C\c2ccc3c(c2)OCO3)C(=O)S1`, the Potency was inconclusive [inhibitor, partial curve]. With `Nc1nc(F)cc(N2CCCCCC2)n1` the Potency was “inactive”. `Cc1ccccc1OCC(=O)OCC(=O)c1ccc(OCc2ccccc2)cc1` was tested, and the Potency was “inactive”. With `COc1cccc(CNCc2cccnc2)c1OCc1ccccc1` the Potency was “inactive”. With `CCC(C(=O)NC1CCCC1)N(Cc1ccco1)C(=O)Cn1nnc(-c2ccc(C)cc2)n1` (stereo not given) the Potency was inconclusive [inhibitor, partial curve]. In the case of `C#CCn1c(=NC(=O)c2ccc(Cl)s2)sc2cccc(OC)c21`, the Potency is reported as inconclusive [inhibitor, single point]. With `COc1ccc(CNC(=O)CCSCc2ccccc2C)cc1` the Potency was active: 3.98 µM. `Cc1c(C#N)c2ncnc(-c3ccccc3)c2n1-c1ccccc1` was tested, and the Potency was inconclusive [inhibitor, single point]. With `Cc1scc(C(=O)N2CCN(S(C)(=O)=O)CC2)c1-c1ccccc1` the Potency was inconclusive [inhibitor, single point]. `CN(C)c1oc(-c2ccccc2)nc1C#N` was tested, and the Potency was inconclusive [inhibitor, partial curve]. In the case of `Cc1cccc(/C=N/n2c(-c3ccccn3)n[nH]c2=S)c1`, the Potency is reported as inconclusive [inhibitor, single point]. With `CCOc1nc2cccc(C(=O)OC(C)OC(=O)OC3CCCCC3)c2n1Cc1ccc(-c2ccccc2-c2nn[nH]n2)cc1` (stereo not given) the Potency was “inactive”. With `COc1ccc(C(=O)Nc2sc3c(c2C(=O)NCc2ccco2)CCCC3)cc1OC` the Potency was inconclusive [inhibitor, partial curve]. In the case of `CCC1CCCCN1C(=O)c1nn2cccnc2c1Cl` (stereo not given), the Potency is reported as “inactive”. For `O=C1CC(N2CCCCC2)C(=O)N1c1ccccc1` (stereo not given), the Potency was inconclusive [inhibitor, single point]. In the case of `COc1ccc(NC(=O)c2cc(-c3ccco3)on2)cc1`, the Potency is reported as inconclusive [inhibitor, single point]. `CN(C)Cc1ccccc1-c1ccc2ncnc(NC3CC3)c2c1` was tested, and the Potency was “inactive”. In the case of `O=C(O)COc1ccc(C(=O)Cc2ccc3c(c2)OCCCO3)c(O)c1`, the Potency is reported as active: 22.4 µM. With `CC1(OC(=O)CCc2ccccc2)C(=O)C=C2C=C(c3ccc(C#N)cc3)N(Cc3ccccc3)C=C2C1=O` (stereo not given) the Potency was inconclusive [inhibitor, single point]. `CC(C)CCNC(=O)COc1ccc2c3c(c(=O)oc2c1)CCC3` was tested, and the Potency was inconclusive [inhibitor, partial curve]. With `Cn1c(=O)[nH]c(=O)c2c1nc(CN1CCN(c3cccc(Cl)c3)CC1)n2Cc1ccccc1Cl` the Potency was inconclusive [inhibitor, full curve]. In the case of `CCSc1nc2cc(OC)c(OC)cc2c(=O)n1CCc1ccccc1`, the Potency is reported as inconclusive [inhibitor, single point]. `COC(=O)c1cccc(NC(=O)COc2cccc([N+](=O)[O-])c2)c1` was tested, and the Potency was inconclusive [inhibitor, single point]. For `COc1ccc(-c2nn(CCC(=O)O)cc2/C=C/C(=O)O)cc1[N+](=O)[O-]`, the Potency was “inactive”. For `Cc1ccccc1C(=O)N1CCN(c2ccccn2)CC1`, the Potency was inconclusive [inhibitor, single point]. For `CCOCCn1c(N2CCN(c3ccccc3)CC2)nc2c1c(=O)n(C)c(=O)n2C`, the Potency was inconclusive [inhibitor, single point]. With `CNC(=S)N1N=C(c2ccccc2)CC1c1ccccc1Cl` (stereo not given) the Potency was inconclusive [inhibitor, single point]. `CCC(=O)Nc1cccc(-c2cn3ccsc3n2)c1` was tested, and the Potency was “inactive”. `CCOC(=O)c1sc(C)c2c1NC(C)(c1ccccc1)NC2=O` (stereo not given) was tested, and the Potency was inconclusive [inhibitor, single point]. With `O=C(CN1CCc2ccccc21)Nc1ccc2c(c1)OCO2` the Potency was active: 12.6 µM. With `Cc1cccn2c(=O)c3cc(C(=O)NCc4cccnc4)c(=N)n(C)c3nc12` the Potency was inconclusive [inhibitor, single point]. For `CCSc1nnc(NC(=O)C(NC(=O)c2ccc(Cl)cc2)C(C)C)s1` (stereo not given), the Potency was “inactive”. With `N=c1c2c(-c3ccccc3)c(-c3ccccc3)n(Cc3ccccc3)c2ncn1CCCO` the Potency was inconclusive [inhibitor, partial curve]. `O=C(c1ccccc1)[C@H]1[C@H](c2ccccc2)[C@@]2(N=C(c3ccccc3)OC2=O)C2c3ccccc3C=NN21` (stereo not given in full) was tested, and the Potency was inconclusive [inhibitor, single point]. In the case of `COc1ccc(-c2cc(-c3nnc(-c4ccncc4)o3)c3ccccc3n2)cc1`, the Potency is reported as inconclusive [inhibitor, partial curve, poor fit]. With `COC(=O)c1ccc(Oc2c(C)oc3cc(OCc4cnn(-c5ccccc5)c4)ccc3c2=O)cc1` the Potency was “inactive”. For `Cc1ccc(S(=O)(=O)/N=C(\Nc2cc(C)on2)c2ccc(Cl)cc2)cc1`, the Potency was inconclusive [inhibitor, single point]. In the case of `Cc1cc2nc3c(=O)n(C4CCCCC4)c(=O)[nH]c3nc2cc1N`, the Potency is reported as “inactive”. `O=C(CN1CCCCCC1)Nc1ccc(Br)cc1` was tested, and the Potency was “inactive”. `CCNC(=S)N/N=C(\C)c1cc2ccccc2o1` was tested, and the Potency was inconclusive [inhibitor, partial curve]. With `O=C(Nc1ccccc1)N1CC2(CCN(C(=O)c3cc(C(F)(F)F)cc(C(F)(F)F)c3)CC2)C1` the Potency was “inactive”. For `O=c1[nH]c(CN2CCN(S(=O)(=O)/C=C/c3ccccc3)CC2)nc2cc(Cl)ccc12`, the Potency was inconclusive [inhibitor, partial curve]. With `Cc1ccc(/C=N/NC(=O)CSc2nnc(-c3ccc(Cl)cc3)n2-c2ccccc2)o1` the Potency was active: 10 µM. `CCOC(=O)C(C)On1c(-c2cccc(Cl)c2)nc2ccc([N+](=O)[O-])cc21` (stereo not given) was tested, and the Potency was inconclusive [inhibitor, single point]. For `COc1ccc(NC(=O)c2cc3c(s2)CCC(C)C3)cc1S(=O)(=O)N1CCOCC1` (stereo not given), the Potency was active: 15.8 µM. For `Nc1nnnn1/N=C/c1cccc(OCc2ccccc2Cl)c1`, the Potency was “inactive”. `O=c1c(Cc2ccccc2)c(O)ccn1CCc1cnc[nH]1` was tested, and the Potency was “inactive”. In the case of `COC(=O)CSC1=NS(=O)(=O)c2ccccc21`, the Potency is reported as “inactive”. `Nc1nc(Sc2c([N+](=O)[O-])cc(C(F)(F)F)cc2[N+](=O)[O-])n[nH]1` was tested, and the Potency was “inactive”. `N#Cc1nn(-c2ccccc2)nc1N1CCCCC1` was tested, and the Potency was inconclusive [inhibitor, partial curve]. In the case of `Cc1ccc(-c2cc(C(=O)NCc3cccnc3)no2)cc1`, the Potency is reported as “inactive”. With `Cn1nnnc1SCCNCc1ccccc1OCc1ccccc1Cl` the Potency was inconclusive [inhibitor, single point].
